US5011825A, “Peptides influencing diuresis and natriuresis, a process for their preparation, agents containing them, and their use” (Hoechst Aktiengesellschaft, priority 1986, dated 1991)
Not every detail of the peptide structures is certain; ends, links or a residue may be inferred. Where a SMILES comes first, the peptide text is derived from it. [ ]: non-standard residue; d: D form. The star is where a group is joined. Fmoc = O=C(OCC1c2ccccc2-c2ccccc21)*; Phenoxyacetyl = O=C(COc1ccccc1)*; X1 = CC[C@H](C)[C@@H](CO)N*; Ahx = NCCCCCC(=O)O; OtBu = CC(C)(C)O*; StBu = CC(C)(C)S*; NHiBu = CC(C)CN*; tBu = CC(C)(C)*

Legend:
[1] = test system: rat; assay: Diuretic, natriuretic and kaliuretic action, Experimental Design 2 (anesthetized rats, stepwise halved NaCl infusion, i.v. bolus); type: in vivo; conditions: for Urine / K^+ / Na^+: collection period 120 min; for Urine: control 0.520; for K^+: control 25.8; for Na^+: control 31.5; for Type of action on diuresis, natriuresis and kaliuresis (in words): judged from the data against control
Method: B. Diuretic, natruiuretic and kaliuretic action of the peptides according to the invention in Experimental Design 2 (dose: 1 mg/kg rat, colection period: 120 min.)
Experimental Design 2: The rats were anesthetized with 0.1 ml of 10% strength thiobutabarbital sodium/100 g of body weight i.p. They received an NaCl infusion from 60 min before administration of the substance up to administration of the substance (2.5 ml of a 0.85% strength NaCl solution .h^-1.0.1 kg^-1 body weight). After ad
ministration of the substance, the infusion rate was halved for one hour (1.25 ml.h^-1.0.1 kg^-1) Thereafter the infusion rate was again halved up to the end of the experiment (0.625 ml.h^1.0.1 kg^-1). The test substance was administered as i.v. bolus in 0.1 ml of a 0.85% strength NaCl solution/100 g of body weight.

[2] = test system: rat; assay: Diuretic, natriuretic and kaliuretic action, Experimental Design 1 (anesthetized rats, continuous NaCl infusion, i.v. bolus); type: in vivo; conditions: for Urine / K^+ / Na^+: dose 1 mg/kg rat i.v. bolus, collection period 90 min; for Urine: control 1.267; for K^+: control 29.5; for Na^+: control 65.2
Method: A. […]
Experimental Design 1: The rats were anesthetized with 0.1 ml of 10% strength thiobutabarbital sodium/100 g of body weight i.p. They received an NaCl infusion from 60 min before administration of the substance and continuing during the experiment (2.5 ml of a 0.9% strength NaCl solution .h^-1.0.1 kg^-1 body weight). The test substance was administered as an i.v. bolus in 0.5 ml of a 0.9% strength solution/100 g of body weight.

| Compound | Urine ([1]; dose 1 mg/kg rat i.v. bolus) [mL/kg] | K^+ ([1]; dose 1 mg/kg rat i.v. bolus) [µmol/kg] | Na^+ ([1]; dose 1 mg/kg rat i.v. bolus) [µmol/kg] | Urine [2] [mL/kg] | K^+ [2] [µmol/kg] | Na^+ [2] [µmol/kg] | also measured |
| --- | --- | --- | --- | --- | --- | --- | --- |
| CC(C)(C)OC(=O)[C@H](Cc1ccccc1)NC(=O)[C@H](CCCNC(=N)N)NC(=O)[C@H](CSSC(C)(C)C)NC(=O)[C@@H]1CCCN1C(=O)[C@H](CCCNC(=N)N)NC(=O)OCC1c2ccccc2-c2ccccc21 [Fmoc-Arg-Pro-Cys(StBu)-Arg-Phe-OtBu] (Fmoc-RPC(StBu)RF-OtBu) | 0.65 | 16.5 | 143.0 |  |  |  |  |
| CC[C@H](C)[C@H](NC(=O)[C@H](CCCNC(=N)N)NC(=O)[C@H](CC(=O)OC(C)(C)C)NC(=O)[C@@H](NC(=O)[C@@H](N)CCCNC(=N)N)[C@@H](C)CC)C(N)=O [H-Arg-Ile-Asp(OtBu)-Arg-Ile-NH2] (H-RID(OtBu)RI-NH2) |  |  |  | 1.34 | 35.4 | 159.8 |  |
| CC[C@H](C)[C@H](NC(=O)[C@H](CCCNC(=N)N)NC(=O)[C@H](CC(=O)OC(C)(C)C)NC(=O)[C@@H](NC(=O)[C@@H](N)CCCNC(=N)N)[C@@H](C)CC)C(=O)O [H-Arg-Ile-Asp(OtBu)-Arg-Ile-OH] (H-RID(OtBu)RI-OH) |  |  |  | 2.49 | 25.9 | 249.1 | Type of action on diuresis, natriuresis and kaliuresis (in words) ([2]; judged from the data against control): diuretic and natriuretic action |
| CC[C@H](C)[C@H](NC(=O)[C@@H](N)CCCNC(=N)N)C(=O)N[C@@H](CC(=O)OC(C)(C)C)C(=O)N[C@@H](CCCNC(=N)N)C(=O)N[C@H](CO)[C@@H](C)CC [H-Arg-Ile-Asp(OtBu)-Arg-Ile-ol] (H-RID(OtBu)R-X1) |  |  |  | 1.56 | 59.4 | 155.4 |  |
| CC[C@H](C)[C@H](NC(=O)[C@@H](N)CCCNC(=N)N)C(=O)N[C@@H](CC(=O)OC(C)(C)C)C(=O)N[C@@H](CCCNC(=N)N)C(=O)N[C@@H](Cc1c[nH]c2ccccc12)C(N)=O [H-Arg-Ile-Asp(OtBu)-Arg-Trp-NH2] (H-RID(OtBu)RW-NH2) |  |  |  | 1.97 | 33.0 | 225.0 |  |
| CC[C@H](C)[C@H](NC(=O)[C@@H](N)CCCNC(=N)N)C(=O)N[C@@H](CC(=O)OC(C)(C)C)C(=O)N[C@@H](CCCNC(=N)N)C(=O)N[C@H](C(N)=O)C(C)C [H-Arg-Ile-Asp(OtBu)-Arg-Val-NH2] (H-RID(OtBu)RV-NH2) |  |  |  | 1.95 | 89.2 | 184.7 |  |
| CC[C@H](C)[C@H](NC(=O)[C@@H](N)CCCNC(=N)N)C(=O)N[C@@H](CC(=O)OC(C)(C)C)C(=O)N[C@@H](CCCNC(=N)N)C(=O)NCC(C)C [H-Arg-Ile-Asp(OtBu)-Arg-isobutylamide] (H-RID(OtBu)R-NHiBu) |  |  |  | 1.43 | 51.3 | 131.6 |  |
| CC[C@H](C)[C@H](NC(=O)[C@H](CCCNC(=N)N)NC(=O)[C@H](CCC(=O)OC(C)(C)C)NC(=O)[C@@H](NC(=O)[C@@H](N)CCCNC(=N)N)[C@@H](C)CC)C(N)=O [H-Arg-Ile-Glu(OtBu)-Arg-Ile-NH2] (H-RIE(OtBu)RI-NH2) | 1.04 | 67.3 | 95.6 |  |  |  |  |
| CC(C)(C)OC(=O)[C@H](Cc1ccccc1)NC(=O)[C@H](CCCNC(=N)N)NC(=O)[C@H](CSSC(C)(C)C)NC(=O)[C@@H]1CCCN1C(=O)[C@@H](N)CCCNC(=N)N [H-Arg-Pro-Cys(StBu)-Arg-Phe-OtBu] (H-RPC(StBu)RF-OtBu) | 0.32 | 11.1 | 87.5 |  |  |  | Type of action on diuresis, natriuresis and kaliuresis (in words) [1]: antidiuretics with an antinatriuretic action |
| CC(C)(C)OC(=O)C[C@H](NC(=O)[C@H](Cc1c[nH]c2ccccc12)NC(=O)[C@@H](N)CCCNC(=N)N)C(=O)N[C@@H](CCCNC(=N)N)C(=O)N[C@@H](Cc1ccccc1)C(N)=O [H-Arg-Trp-Asp(OtBu)-Arg-Phe-NH2] (H-RWD(OtBu)RF-NH2) | 0.66 | 37.1 | 148.7 |  |  |  |  |
| CC(C)[C@H](NC(=O)[C@@H](N)CCCNC(=N)N)C(=O)N[C@@H](Cc1ccc(OC(C)(C)C)cc1)C(=O)N[C@@H](CCCNC(=N)N)C(=O)N1CCC[C@H]1C(=O)OC(C)(C)C [H-Arg-Val-Tyr(tBu)-Arg-Pro-OtBu] (H-RVY(tBu)RP-OtBu) |  |  |  | 0.28 | 21.9 | 59.2 |  |
| CC[C@H](C)[C@H](NC(=O)[C@H](CCCNC(=N)N)NC(=O)[C@H](CC(=O)OC(C)(C)C)NC(=O)[C@@H](NC(=O)[C@@H](N)CCCCN)[C@@H](C)CC)C(N)=O [H-Lys-Ile-Asp(OtBu)-Arg-Ile-NH2] (H-KID(OtBu)RI-NH2) | 0.08 | 22.1 | 10.6 |  |  |  | Type of action on diuresis, natriuresis and kaliuresis (in words) [1]: antidiuretics with an antinatriuretic action |
| CC[C@H](C)[C@H](NC(=O)[C@H](CCCNC(=N)N)NC(=O)[C@H](CC(=O)OC(C)(C)C)NC(=O)[C@@H](NC(=O)CCCCCN)[C@@H](C)CC)C(N)=O [H-ε-aminohexanoyl-Ile-Asp(OtBu)-Arg-Ile-NH2] (H-[Ahx]ID(OtBu)RI-NH2) | 0.82 | 38.0 | 54.9 |  |  |  |  |
| CC[C@H](C)[C@H](NC(=O)[C@H](CCCNC(=N)N)NC(=O)[C@H](CC(=O)OC(C)(C)C)NC(=O)[C@@H](NC(=O)[C@H](CCCNC(=N)N)NC(=O)COc1ccccc1)[C@@H](C)CC)C(=O)O [Phenoxyacetyl-Arg-Ile-Asp(OtBu)-Arg-Ile-OH] (Phenoxyacetyl-RID(OtBu)RI-OH) |  |  |  | 0.66 | 31.7 | 117.7 |  |
| CC[C@H](C)[C@@H]1NC(=O)[C@H](CCCNC(=N)N)NC(=O)[C@@H](CC(C)C)NC(=O)[C@H]([C@@H](C)CC)NC(=O)[C@@H](CCCNC(=N)N)NC1=O [cyclo-(D-Arg-Ile-D-Leu-Arg-Ile), Cyclo(D-Arg-Ile-D-Leu-Arg-Ile)] (cyclo(I[dL]RI[dR])) |  |  |  |  |  |  | Type of action on diuresis, natriuresis and kaliuresis (in words) [1]: diuretic and natriuretic action; Urine ([1]; with 1 μg/kg i.v. bolus): 1.05 mL/kg; K^+ ([1]; with 1 μg/kg i.v. bolus): 36.6 µmol/kg; Na^+ ([1]; with 1 μg/kg i.v. bolus): 128.2 µmol/kg |
| CC[C@H](C)[C@@H]1NC(=O)[C@H](CCCNC(=N)N)NC(=O)[C@H](CC(C)C)NC(=O)[C@H]([C@@H](C)CC)NC(=O)[C@H](CCCNC(=N)N)NC(=O)CNC1=O [cyclo-(Gly-Arg-Ile-Leu-Arg-Ile), cyclo(Gly-Arg-Ile-Leu-Arg-Ile)] (cyclo(GRILRI)) |  |  |  |  |  |  | Urine ([1]; with 0.5 mg/kg i.v. bolus): 0.69 mL/kg; K^+ ([1]; with 0.5 mg/kg i.v. bolus): 26.6 µmol/kg; Na^+ ([1]; with 0.5 mg/kg i.v. bolus): 65.5 µmol/kg |
| CC[C@H](C)[C@@H]1NC(=O)[C@H](CCCNC(=N)N)NC(=O)[C@H](Cc2ccccc2)NC(=O)[C@H]([C@@H](C)CC)NC(=O)[C@H](CCCNC(=N)N)NC(=O)CNC1=O [cyclo-(Gly-Arg-Ile-Phe-Arg-Ile), cyclo(Gly-Arg-Ile-Phe-Arg-Ile)] (cyclo(FRIGRI)) |  |  |  | 1.58 | 57.7 | 196.2 |  |
